In patent US20130251713A1 (published 2013):

T1: CD86Ig (UniProt P42081 24-247, limits assumed)
T1 construct: Immobilized on BIAcore chips; also called soluble CD86Ig; not shown: Immunoglobulin portion
T1 sequence (looked up): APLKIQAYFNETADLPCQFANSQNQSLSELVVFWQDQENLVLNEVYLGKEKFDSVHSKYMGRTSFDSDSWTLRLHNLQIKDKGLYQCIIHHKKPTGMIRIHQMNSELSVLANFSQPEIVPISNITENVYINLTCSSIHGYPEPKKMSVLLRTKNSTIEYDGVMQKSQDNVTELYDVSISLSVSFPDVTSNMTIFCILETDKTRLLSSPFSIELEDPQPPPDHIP

B1: L104EA29LIg (Fc fusion)
chain: MHVAQPAVVLASSRGIASFVCEYASPGKLTEVRVTVLRQADSQVTEVCAATYMMGNELTFLDDSICTGTSSGNQVNLTIQGLRAMDTGLYICKVELMYPPPYYEGIGNGTQIYVIDPEPCPDSDQ[gap - human IgG1 Fc with changes]
notes: Tested as COS cell culture medium in the SPR off-rate screen
B2: L104EA29WIg (Fc fusion)
chain: MHVAQPAVVLASSRGIASFVCEYASPGKWTEVRVTVLRQADSQVTEVCAATYMMGNELTFLDDSICTGTSSGNQVNLTIQGLRAMDTGLYICKVELMYPPPYYEGIGNGTQIYVIDPEPCPDSDQ[gap - human IgG1 Fc with changes]
notes: as for B1
B3: L104EA29TIg (Fc fusion)
chain: MHVAQPAVVLASSRGIASFVCEYASPGKTTEVRVTVLRQADSQVTEVCAATYMMGNELTFLDDSICTGTSSGNQVNLTIQGLRAMDTGLYICKVELMYPPPYYEGIGNGTQIYVIDPEPCPDSDQ[gap - human IgG1 Fc with changes]
notes: as for B1

Target: T1, CD86Ig
Test: SPR screen of COS culture media over immobilized CD86Ig

Fold slower 'off' rate than wild type CTLA4Ig, ~4 fold:
B1, B2, B3
